A lower IC50 marks a more sensitive line; where the fit passes the top or lowest dose, that dose stands as a limit. The AUC spans the tested range (256-fold, ending at the top dose) of the same fit; values near 1 show little effect. The top dose, if marked as inferred, was derived from the fitted curves, not read from the paper. For some assays here: An entry number marks a drug with two screens in the source, which often give different values.
How the values were obtained:
Assay in all cases: Viability of human cancer cell lines after 72 h of drug (GDSC screen)
[1] = compound: Cc1cccc(-c2[nH]c(C(C)(C)C)nc2-c2ccc3nccnc3c2)n1 [SB-525334]; details: top dose 20 µM; top dose inferred
Description: (§1)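 Human cancer cell lines in 384-well plates, medium with 10% serum, drug for 72 h over a 256-fold dose range (nine 2-fold or five 4-fold steps up to the top dose). Adherent lines were fixed and stained with the nucleic acid dye Syto60, suspension lines read with resazurin; signal relative to control wells, capped at 0 and 100%. One two-parameter sigmoid per drug and line, fitted in a mixed model over all curves with the slope shared within a line.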

[2] = compound: NC(=O)c1ccc(N(C(N)=O)c2c(F)cccc2F)nc1-c1ccc(F)cc1F [VX-702]; details: top dose 2 µM; top dose inferred
Description: as §1

[3] = compound: CC(C)=CC[C@@H](O)C1=CC(=O)c2c(O)ccc(O)c2C1=O [Shikonin]; details: top dose 16 µM; top dose inferred
Description: as §1

[4] = compound: Cc1ccc(-n2nc(C(C)(C)C)cc2NC(=O)Nc2ccc(OCCN3CCOCC3)c3ccccc23)cc1 [BIRB 0796]; details: top dose 10 µM; top dose inferred
Description: as §1

[5] = compound: O=C1NC(=O)c2c1c(-c1ccccc1Cl)cc1[nH]c3ccc(O)cc3c21 [Wee1 inhibitor 681640]; details: top dose 2 µM; top dose inferred
Description: as §1

[6] = compound: Cc1cc(N2CCOCC2)cc2[nH]c(-c3c(NC[C@@H](O)c4cccc(Cl)c4)cc[nH]c3=O)nc12 [BMS-536924]; details: top dose 4 µM; screen: GDSC drug entry 1091; top dose inferred
Description: as §1

[7] = compound: O=C(c1cc(Cc2n[nH]c(=O)c3ccccc23)ccc1F)N1CCN(C(=O)C2CC2)CC1 [Olaparib]
Description: as §1

[8] = top dose 5 µM, screen: GDSC drug entry 1017, top dose inferred
[9] = top dose 10 µM, screen: GDSC drug entry 1495

Cell Line	AUC [1]	IC50 [1] [µM]	AUC [2]	IC50 [2] [µM]	AUC [3]	IC50 [3] [µM]	AUC [4]	IC50 [4] [µM]	AUC [5]	IC50 [5] [µM]	AUC [6]	IC50 [6] [µM]	AUC [7, 8]	IC50 [7, 8] [µM]	AUC [7, 9]	IC50 [7, 9] [µM]
OE33 (oesophagus, adherent)	0.831	16.1	0.983	> 2	0.603	2.02	0.976	> 10	0.954	> 2	0.968	> 4	0.983	> 5	0.978	> 10
OSC-20 (head and neck, adherent)	0.956	> 20	0.965	> 2	0.272	0.196	0.982	> 10	0.907	> 2	0.93	> 4	0.982	> 5	0.918	> 10
OVMIU (ovary, adherent)	0.849	> 20	0.981	> 2	0.736	5.67	0.955	> 10	0.885	> 2	0.888	> 4	0.981	> 5	0.905	> 10
P12-ICHIKAWA (T-cell lymphoblastic leukaemia, suspension)	0.981	> 20	0.989	> 2	0.523	1.14	0.993	> 10	0.993	> 2	0.994	> 4	0.978	> 5	0.991	> 10
PA-TU-8902 (pancreas, adherent)	0.969	> 20	0.983	> 2	0.652	2.85	0.982	> 10	0.965	> 2	0.814	2.65	0.98	> 5	0.93	> 10
PANC-03-27 (pancreas, adherent)	0.829	11.3	0.984	> 2	0.319	0.323	0.965	> 10	0.839	1.24	0.98	> 4	0.988	> 5	0.968	> 10
PANC-04-03 (pancreas, adherent)	0.952	> 20	0.965	> 2	0.59	2.04	0.964	> 10	0.965	> 2	0.881	> 4	0.967	> 5	–	–
PC-3 [JPC-3] (lung adenocarcinoma, adherent)	0.951	> 20	0.981	> 2	0.522	1.17	0.964	> 10	0.963	> 2	0.921	> 4	0.981	> 5	0.943	> 10
PCI-15A (head and neck, adherent)	0.987	> 20	0.792	0.916	0.471	0.832	0.807	5.18	0.362	0.0519	0.97	> 4	0.988	> 5	0.981	> 10
PE/CA-PJ15 (head and neck, adherent)	0.955	> 20	0.979	> 2	0.564	1.52	0.944	> 10	0.869	> 2	0.966	> 4	0.958	> 5	0.954	> 10
RH-41 (rhabdomyosarcoma, adherent)	0.986	> 20	0.985	> 2	0.444	0.723	0.906	9.75	0.945	> 2	0.525	0.289	0.97	> 5	0.959	> 10
RPMI-2650 (head and neck, adherent)	0.971	> 20	0.974	> 2	0.368	0.419	0.976	> 10	0.927	> 2	0.849	3.39	0.96	> 5	0.842	7.9
SAS (head and neck, adherent)	0.963	> 20	0.958	> 2	0.494	0.963	0.904	> 10	0.884	> 2	0.915	> 4	0.942	> 5	0.869	> 10
SBC-5 (small cell lung carcinoma, adherent)	0.919	> 20	0.99	> 2	0.445	0.731	0.993	> 10	0.988	> 2	0.987	> 4	0.975	> 5	0.971	> 10
SCC-9 (head and neck, adherent)	0.978	> 20	0.981	> 2	0.272	0.184	0.95	> 10	0.925	> 2	0.795	2.47	0.981	> 5	0.875	> 10
SCC-25 (head and neck, adherent)	0.929	> 20	0.984	> 2	0.347	0.353	0.982	> 10	0.966	> 2	0.865	> 4	0.984	> 5	0.955	> 10
SISO (cervix, adherent)	0.948	> 20	0.988	> 2	0.425	0.628	0.965	> 10	0.988	> 2	0.886	> 4	0.987	> 5	0.863	8.03

Cell Line	AUC [1]	IC50 [1] [µM]	AUC [2]	IC50 [2] [µM]	AUC [3]	IC50 [3] [µM]	AUC [4]	IC50 [4] [µM]	AUC [5]	IC50 [5] [µM]	AUC [6]	IC50 [6] [µM]	AUC [7, 8]	IC50 [7, 8] [µM]	AUC [7, 9]	IC50 [7, 9] [µM]
SK-HEP-1 (liver, adherent)	0.965	> 20	0.989	> 2	0.399	0.539	0.989	> 10	0.908	> 2	0.961	> 4	0.978	> 5	0.884	9.62
SKG-IIIa (cervix, adherent)	0.983	> 20	0.983	> 2	0.688	4.06	0.98	> 10	0.942	> 2	0.872	> 4	0.983	> 5	0.918	> 10
SNU-182 (liver, adherent)	0.974	> 20	0.979	> 2	0.656	2.77	0.905	> 10	0.968	> 2	0.892	> 4	0.986	> 5	0.936	> 10
SNU-423 (liver, adherent)	0.957	> 20	0.979	> 2	0.337	0.325	0.928	> 10	0.979	> 2	0.946	> 4	0.981	> 5	0.944	> 10
SNU-449 (liver, adherent)	0.902	> 20	0.986	> 2	0.464	0.792	0.984	> 10	0.979	> 2	0.921	> 4	0.986	> 5	0.97	> 10
SUIT-2 (pancreas, adherent)	0.516	1.39	0.983	> 2	0.552	1.4	0.965	> 10	0.92	> 2	0.923	> 4	0.966	> 5	0.938	> 10
SW13 (adrenal gland, adherent)	0.988	> 20	0.987	> 2	0.508	1.05	0.983	> 10	0.94	> 2	0.894	> 4	0.986	> 5	0.977	> 10
SW780 (bladder, adherent)	0.986	> 20	0.986	> 2	0.411	0.555	0.95	> 10	0.906	> 2	0.867	> 4	0.952	> 5	0.942	> 10
SW1417 (large intestine, adherent)	0.973	> 20	0.986	> 2	0.467	0.801	0.966	> 10	0.982	> 2	0.92	> 4	0.986	> 5	0.976	> 10
SiHa (cervix, adherent)	0.987	> 20	0.987	> 2	0.723	4.78	0.912	> 10	0.985	> 2	0.971	> 4	0.987	> 5	0.947	> 10
T98G (glioma, adherent)	0.981	> 20	0.99	> 2	0.527	1.17	0.989	> 10	0.922	> 2	0.877	3.5	0.96	> 5	0.945	> 10
T-T (oesophagus, adherent)	0.943	> 20	0.986	> 2	0.419	0.602	0.895	> 10	0.91	> 2	0.884	> 4	0.961	> 5	0.958	> 10
TGBC11TKB (stomach, adherent)	0.985	> 20	0.992	> 2	0.656	2.55	0.992	> 10	0.991	> 2	0.981	> 4	0.991	> 5	0.984	> 10
U-118-MG (glioma, adherent)	0.952	> 20	0.986	> 2	0.508	1.06	0.984	> 10	0.97	> 2	0.97	> 4	0.984	> 5	0.911	> 10
WM793B (melanoma, adherent)	0.905	> 20	0.984	> 2	0.438	0.666	0.984	> 10	0.936	> 2	0.982	> 4	0.961	> 5	0.922	> 10
YAPC (pancreas, adherent)	0.961	> 20	0.978	> 2	0.758	6.84	0.979	> 10	0.965	> 2	0.802	2.56	0.983	> 5	0.96	> 10
YKG-1 (glioma, adherent)	0.964	> 20	0.987	> 2	0.27	0.218	0.976	> 10	0.89	> 2	0.952	> 4	0.927	> 5	0.913	> 10
